Source: the RNAGym collection of RNA variant scans (doi:10.7554/elife.90254)
Read counts are not given, so values of variants with three or more changes are uncertain.

B1: LINE1-full (parent)
chain: UACGUAGGUGGUUUUCCCCUGAUAGUGCUAAGGGGGCCUGGAAGUUUGGACUGGGCAGAGCUCAACACAGCGUGGCAAAGUGGCUGUGGCUAGACUGCCUCUCUGGAUUCCUCGUCACUCAGCAGGGCAUCUCUGAGAGAAAUGCC

Variants of: B1
Assay: self-cleavage, relative activity (ratio to wild type); higher = more cleavage; in vitro, sequencing; the parent is a self-cleaving ribozyme
Variant U5C U20A U39C has a self-cleavage of 0.73.
A43U A69U A117G gave a self-cleavage of 0.
In the case of A42G A117G A141G, the self-cleavage is reported as 1.4.
Work on A43C U104C A107G yielded a self-cleavage of 1.97.
Variant A24G A107G G122U has a self-cleavage of 1.48.
Variant U26C A94G A124U C128U has a self-cleavage of 0.32.
With U13C U46C A50G U52A U104A the self-cleavage was 0.75.
For G11A G41U G58A, the self-cleavage was 0.03.
In the case of U14C U39C C113A U130C, the self-cleavage is reported as 1.45.
C16U G33A U73A U104C gave a self-cleavage of 0.58.
Work on C63U A67G U108C U130C yielded a self-cleavage of 0.37.
With U12C U52G A142G the self-cleavage was 1.41.
A22C C71U U119C showed a self-cleavage of 1.27.
In the case of U109C A140G A142G, the self-cleavage is reported as 0.97.
With A6G U112C A141G the self-cleavage was 1.33.
U81G G89A C113A U132A showed a self-cleavage of 0.03.
G35A A69G U102A gave a self-cleavage of 0.5.
Work on U46A A77G U91C A92G U112A A141G yielded a self-cleavage of 1.84.
U13C A22G U91C showed a self-cleavage of 0.
For A59G U73A A107U, the self-cleavage was 0.07.
U14C U85A U96C showed a self-cleavage of 0.05.
For U119A A138U A142G, the self-cleavage was 1.53.
Variant A92G U102A U112A has a self-cleavage of 0.18.
Variant U14C A50G A121G has a self-cleavage of 1.19.
In the case of C28U U46A U73C U87A U108C, the self-cleavage is reported as 0.09.
In the case of G27C U47C A142G, the self-cleavage is reported as 0.56.
U5C U14C U109C C113A showed a self-cleavage of 1.66.
U87C A107U U130C showed a self-cleavage of 0.14.
U52C C71U U81G showed a self-cleavage of 0.34.
In the case of U85C C99U U119A A141G, the self-cleavage is reported as 0.03.
In the case of U1A A77U A117U, the self-cleavage is reported as 0.32.
In the case of U9A A78U U119A, the self-cleavage is reported as 2.22.
U39A A77G A121U showed a self-cleavage of 2.46.
In the case of U39C U87A A92G, the self-cleavage is reported as 0.
With U9C U46A A59G the self-cleavage was 0.24.
Variant G55U G74A U87C A117G has a self-cleavage of 0.03.
Work on A59G C66U U81C C116U U143G yielded a self-cleavage of 0.03.
Variant U29A G35U U112C A121G U134A has a self-cleavage of 1.02.
U14C U39C U87A U96A showed a self-cleavage of 0.08.
For C16U A69U U104C A141G, the self-cleavage was 0.06.
For A43U A59G U102C, the self-cleavage was 0.09.
G32U A77G U102C gave a self-cleavage of 1.49.
For A30U A117G A121U, the self-cleavage was 1.28.
Work on A42G U73C U102A U132C yielded a self-cleavage of 0.
In the case of A42G A57U A129U, the self-cleavage is reported as 0.17.
Variant A2G A64G U81C U143A has a self-cleavage of 0.37.
U13A G58U A92U U143A gave a self-cleavage of 0.07.
For U62A A64U U134A, the self-cleavage was 0.04.
Work on A42G U119C A136G yielded a self-cleavage of 1.98.
Variant G82U U104A A129G has a self-cleavage of 1.41.
In the case of U26C G54U G80U, the self-cleavage is reported as 0.89.
With A117G A124G A141G the self-cleavage was 0.
For U5C U87A U115C, the self-cleavage was 0.27.
With A31G A78G A129U the self-cleavage was 2.3.
U15C U108C U132C showed a self-cleavage of 2.19.
In the case of A57U A59U A138U, the self-cleavage is reported as 0.28.
For A43G A64G U143C, the self-cleavage was 0.25.
U81C U108C A140G A142U showed a self-cleavage of 0.24.
Variant U9C U15G A92G has a self-cleavage of 0.
Work on C28G U108C A138G yielded a self-cleavage of 1.67.
Work on U39C U85C U96A U115A A141U yielded a self-cleavage of 0.16.
U12A U20C A78G U81A U87C C99U U109C C110U G137A showed a self-cleavage of 0.12.
With U26A G34A U45C U85C A138G A141G the self-cleavage was 0.09.
A50G U52A U73A A117G gave a self-cleavage of 1.53.
A24G A42U U81A showed a self-cleavage of 0.94.
Work on U26A G48A U132C yielded a self-cleavage of 0.72.
U46C U81A A107G gave a self-cleavage of 2.35.
In the case of A6G A42G U73C, the self-cleavage is reported as 0.77.
For U47A U85A U87A C98U A138G, the self-cleavage was 0.03.
For U47C G60C A69G A77U U130C, the self-cleavage was 0.09.
U39G C90G A140U showed a self-cleavage of 0.11.
With A78G U115C A124U the self-cleavage was 1.05.
Variant C38U U39C U45C has a self-cleavage of 0.89.
With U14C C90U U115C the self-cleavage was 0.01.
U12C A24G U104A gave a self-cleavage of 0.79.
Work on A2G A65G A141G yielded a self-cleavage of 0.
For U9A U47C U102C, the self-cleavage was 1.62.
In the case of U13A C16U A79G U87A, the self-cleavage is reported as 0.04.
G25A A42G A79G A92C C99U gave a self-cleavage of 0.17.
U104C C118U U134C showed a self-cleavage of 1.65.
Work on U29C U46G U91C A129U yielded a self-cleavage of 0.88.
For U15C A30U A121G, the self-cleavage was 1.11.
With G53A U104C A107G A121C A138G the self-cleavage was 1.53.
Work on A79G A94G A129G A140G yielded a self-cleavage of 0.66.
With A30G U100C U102C C146A the self-cleavage was 2.63.
Variant U13C U81A U102C has a self-cleavage of 2.02.
With A22G A30G U115C the self-cleavage was 0.
Variant A30G U104C A121U has a self-cleavage of 2.69.
Work on U15C A78G A79G U109C yielded a self-cleavage of 0.
Variant A22G U100C A124U has a self-cleavage of 2.07.
Variant A50G A124U U132C has a self-cleavage of 1.34.
For A22G G36A U73C, the self-cleavage was 1.11.
Variant A24G U73A A142G has a self-cleavage of 3.
Variant A79U U109C A117U A129G has a self-cleavage of 1.61.
For U12G U52A U100C, the self-cleavage was 0.49.
Work on U12C C95U A140G yielded a self-cleavage of 0.17.
A24G A30G U52A A142G showed a self-cleavage of 1.76.
With U20A A94U U134C the self-cleavage was 0.35.
Work on U15C G34A U47A U85C A140G yielded a self-cleavage of 0.09.
Work on A30G A65U A142G yielded a self-cleavage of 0.43.
U1C U13C G35A U100A U102C showed a self-cleavage of 0.63.
For U45G A77U U85G U112C, the self-cleavage was 0.06.
Work on A59G A94U U104C yielded a self-cleavage of 0.19.
In the case of G8C U20C A59G U100C, the self-cleavage is reported as 0.
G25C A92G U130C gave a self-cleavage of 0.16.
A6G A22G U130C showed a self-cleavage of 1.12.
In the case of A31U G114U A142G, the self-cleavage is reported as 0.73.
U12G U62C U87A A124G gave a self-cleavage of 0.23.
U1G A57G U87A U130A showed a self-cleavage of 0.28.
In the case of U14C G72A A79G, the self-cleavage is reported as 0.59.
In the case of U20A A22G U112C, the self-cleavage is reported as 1.44.
A43G G82A A136U gave a self-cleavage of 0.95.
For A30G A64G U132C, the self-cleavage was 0.77.
For U14C U29A U73C U134C A136U, the self-cleavage was 1.31.
G33U U47A A65G U119A showed a self-cleavage of 0.
G32U U81A A94G U115A gave a self-cleavage of 0.31.
Work on C19A G40U U45C U96C A129G U132C yielded a self-cleavage of 0.
For U13C U115C U119C, the self-cleavage was 2.76.
Work on G33A U47A A124G yielded a self-cleavage of 0.74.
With A2G A94G C113U A136G the self-cleavage was 0.43.
With U14C U20C A78G A141G the self-cleavage was 1.57.
With C28A U52A A69G U115C G127C the self-cleavage was 1.02.
In the case of U15C A57U A59U U96A G127A, the self-cleavage is reported as 0.29.
U47C U87C U130C showed a self-cleavage of 0.
Variant G11A A124G U134C has a self-cleavage of 1.94.
Variant U20C A69U A121G has a self-cleavage of 0.13.
Work on A79U U81A U85C G86A U130C yielded a self-cleavage of 0.05.
With U12C U47C A65G the self-cleavage was 0.
U13C U15A U73C showed a self-cleavage of 0.64.
U39C U87C A117U gave a self-cleavage of 0.17.
In the case of A2G U52A A57U, the self-cleavage is reported as 0.25.
In the case of C18U U23A U96G U143C, the self-cleavage is reported as 0.
A31U A59G A69G G139U gave a self-cleavage of 0.29.
U1C U13C U26C U47C U52C showed a self-cleavage of 1.53.
U46A G114A A121G showed a self-cleavage of 2.3.
With A31U U47C U87A the self-cleavage was 0.09.
Work on U91A G114A C123U U143A yielded a self-cleavage of 0.32.
For U9C U20C U62C A107G G114A U130C, the self-cleavage was 0.
Work on U91C U109C A117U yielded a self-cleavage of 0.45.
With U39A U52C A94G U96G the self-cleavage was 0.
Variant U100A U115C A117G has a self-cleavage of 1.31.
Variant A6U U9C U14C U45C A69G U81A U109A U119A has a self-cleavage of 1.08.
U15C U62C A140G showed a self-cleavage of 0.
With G25U U81A U85A U132G the self-cleavage was 0.11.
U13C G34A U73A A121G gave a self-cleavage of 1.53.
With A57G G83A U115G the self-cleavage was 0.44.
Work on U108A C113U A121U yielded a self-cleavage of 1.15.
Variant C56U A59G A67G A117G has a self-cleavage of 0.11.
In the case of A50U U109C A121U, the self-cleavage is reported as 0.73.
With U29A A50U A129G U134C the self-cleavage was 1.6.
Work on G25A U62A A65G U104A yielded a self-cleavage of 0.
Variant U91A U104C A117G has a self-cleavage of 0.
U12G U15G C90U G125U showed a self-cleavage of 0.13.
With A92G A117G A136G the self-cleavage was 0.
Work on A65G A69U A77C yielded a self-cleavage of 0.05.
Work on G4C U15C U26C A142G yielded a self-cleavage of 0.54.
With U1C A67G G80A the self-cleavage was 0.71.
Variant A24G A30U G49U A136G A141G has a self-cleavage of 1.41.
A24G U46C U143C showed a self-cleavage of 2.3.
With A77G U109G C146U the self-cleavage was 1.2.
For A67U A69U A77G U104C U108C U115A, the self-cleavage was 0.
U14C U20G C146A showed a self-cleavage of 1.4.
For U13C U47C A57U, the self-cleavage was 0.11.
Variant U14C U39A A78U A124U A140G U143C has a self-cleavage of 2.84.
U5A C18U C68U gave a self-cleavage of 0.34.
Variant U5C U45C U134C has a self-cleavage of 0.51.
In the case of U45C A64C U115A, the self-cleavage is reported as 0.33.
